In patent US20250248396A1, “CHITOSAN ENCAPSULATION OF ABSOLUTE (ESSENTIAL) ROSEMARY, PEPPERMINT, AND COTTONSEED OILS” (priority 2024, published 2025):
Marks after values point to notes of the source that are not given here.

What was measured:
[1] = tested on: root-knot nematodes (Meloidogyne spp.); assay: Nematocidal activity on hatched root-knot nematodes in Petri dish; assay type: in vivo; details: 2000 ppm; for number of killed root-knot nematodes: 15 nematodes per dish
Procedure: In some embodiments, the nematodes used in the experiments were mainly Meloidogyne spp. The below disclosed experiment results are related to the evaluation of nematocidal activity of naturally derived material.
The tomato roots infected with root-knot nematodes were washed with running water and were then cut to a size of about 1 cm, after which 50 g of the cut roots were placed in a 500 ml round-bottom flask containing 200 ml of 0.5% sodium hypochloride (NaOCI), stopped with a rubber stopper, and shaken vigorously for 3 min to sterilize the roots and at the same time burst the egg bag. Thereafter, the solution was passed through a sieve in which 200 mesh was superimposed on 500 mesh, and washed with distilled water, so the eggs of the root-knot nematodes from which the NaOCl solution was removed were recovered.
Next, the eggs of the root-knot nematodes thus recovered were surface-sterilized with 0.5% NaOCl for 10 min, washed thoroughly with sterile distilled water, placed in a phosphate buffer (1%) containing sterilized normal saline, and hatched in an incubator at 25° C.
Thereafter, each mixed solution was diluted to 2000 ppm, 2 to 3 ml thereof was poured into a Petri dish, after which 15 hatched root-knot nematodes were placed in the Petri dish, and nematocidal activity was measured and the results thereof are shown in Table 1 below.
The number of root-knot nematodes used for the experiment on the number of killed root-knot nematodes was 15 at each dilution factor.

tomato seedlings = assay: Phytotoxicity of geraniol drenching treatment on potted tomato seedlings; assay type: in vivo
Description: Sterilized soil was uniformly mixed, 300 g thereof was then placed in each pot, and tomato seedlings not infected with root-knot nematodes were transplanted thereto.

Compound	number of killed root-knot nematodes ([1]; 1 day)	number of killed root-knot nematodes ([1]; 2 days)	number of killed root-knot nematodes ([1]; 3 days)	phytotoxicity symptoms on tomato seedlings (tomato seedlings; at 4000 ppm or more)	phytotoxicity symptoms on tomato seedlings (tomato seedlings; concentration range of 100 ppm to 3,000 ppm)	concentration that caused phytotoxicity in tomato seedlings (tomato seedlings; drench, 1 week)	concentration with no effect on tomato seedlings (tomato seedlings; drench, 1 week)	Nematocidal efficiency (%) ([1]; 15 nematodes, observed up to 3 days)
C/C=C(\C)C(=O)O[C@H]1C[C@@H](OC(C)=O)[C@@]2(C(=O)OC)CO[C@H]3[C@@H](O)[C@@](C)([C@]45O[C@@]4(C)[C@H]4C[C@@H]5O[C@@H]5OC=C[C@@]54O)[C@H]4[C@]1(CO[C@]4(O)C(=O)OC)[C@@H]32 [Azadirachtin]	7	8	10					
CC(C)=CCC/C(C)=C/CO [Geraniol, 3,7-dimethyl-2,6-octadien-1-ol]	15^a			the bottoms of the stems dried up and all tomato seedlings collapsed and withered	no particular phytotoxicity symptoms	≥ 4,000 ppm	≤ 3,000 ppm	
Pyrethrin	5	6	11					73.3%
